Source: PubChem BioAssay (NCI)
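Five concentrations, 48 hours, 96-well plates. TGI is the concentration that stops growth completely.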

Tested on: NCI-H322M lung
Assay: NCI tumour cell line growth inhibition, 48 h

SMILES: COc1ccc(/C(C)=N/OC(=O)c2c(-c3ccccc3Cl)noc2C)cc1CN1CCOCC1
- TGI: 75.6 µM
